Measurements: paper PMC6365497, “2-aminoimidazoles collapse mycobacterial proton motive force and block the electron transport chain” (Scientific Reports, 2019)

System: M. tuberculosis
Experiment: Quantification of intracellular ATP

Structure (SMILES) | Intracellular ATP levels (RLUs/CFUs) (M. tuberculosis, 2 h treatment, 2B8/RA13 31.25–125 µM, CCCP 15 µM, BDQ 18 µM, TRZ 80 µM) | Intracellular ATP levels (RLUs/CFUs)
COc1nc2ccc(Br)cc2cc1[C@@H](c1ccccc1)[C@@](O)(CCN(C)C)c1cccc2ccccc12 [BDQ, bedaquiline, reference compound] | significantly reduced | 
CCCCCCCCCCCCCNC(=O)CCCc1cnc(N)[nH]1 [RA13] |  | not affected

Where two headings read alike, the source gives them in different places.
